In a compilation of properties of binary mixtures (doi:10.1007/s10953-013-9990-0):
The densities may have been worked out from excess volumes.

Experiment: xn = mol fraction of the nth substance listed
Conditions: 101 kPa

CCCC[N+]1(C)CCCC1.O=S(=O)([N-]S(=O)(=O)C(F)(F)F)C(F)(F)F + CC(C)O
mass density [kg/m3]
Conditions	298.15 K	303.15 K	308.15 K
x2 = 0	1394.5	–	1385.7
x2 = 0.0593	1384.7	1380.3	1375.9
x2 = 0.1319	–	1367.2	1362.8
x2 = 0.2344	1350.3	1345.8	–
x2 = 0.3929	1308.3	1303.8	1299.3
x2 = 0.4935	1274	1269.4	1264.8
x2 = 0.5927	1230.6	–	1221.4
x2 = 0.718	1155.5	1150.9	1146.3
x2 = 0.8015	1086.3	1081.7	1077
x2 = 0.9018	967	962.5	958
x2 = 0.9491	889.7	885.3	880.9

CCCC[n+]1cccc(C)c1.O=S(=O)([N-]S(=O)(=O)C(F)(F)F)C(F)(F)F + CC(C)O
mass density [kg/m3]
Conditions	298.15 K	303.15 K	308.15 K
x2 = 0	1414.7	1410.1	1405.5
x2 = 0.0534	1405.5	1400.9	1396.4
x2 = 0.1034	–	1391.8	1387.3
x2 = 0.1577	–	1381.1	1376.6
x2 = 0.1756	1381.9	1377.4	1372.8
x2 = 0.3062	1351.2	1346.5	1341.9
x2 = 0.3957	1325.2	1320.5	1315.8
x2 = 0.51	1283.5	1278.8	1274.2
x2 = 0.6002	1241.5	1237	1232.2
x2 = 0.7046	1177.9	1173.2	1168.4
x2 = 0.8006	–	–	1088.3
x2 = 0.8988	–	974.1	969.5

CC(C)O + CCCC[N+]1(C)CCCC1.O=S(=O)([N-]S(=O)(=O)C(F)(F)F)C(F)(F)F
x1 = 1
Conditions	mass density [kg/m3]
298.15 K	781.1
303.15 K	776.8
308.15 K	772.5

CCCO + CCCC[N+]1(C)CCCC1.O=S(=O)([N-]S(=O)(=O)C(F)(F)F)C(F)(F)F
x1 = 1
Conditions	mass density [kg/m3]
298.15 K	800
303.15 K	796

CCO + CCCC[N+]1(C)CCCC1.O=S(=O)([N-]S(=O)(=O)C(F)(F)F)C(F)(F)F
x1 = 1
Conditions	mass density [kg/m3]
303.15 K	781.1
308.15 K	776.8

CC(C)O + CCCC[n+]1cccc(C)c1.O=S(=O)([N-]S(=O)(=O)C(F)(F)F)C(F)(F)F
x1 = 1
Conditions	mass density [kg/m3]
298.15 K	781.1
303.15 K	776.8

CCCO + CCCC[n+]1cccc(C)c1.O=S(=O)([N-]S(=O)(=O)C(F)(F)F)C(F)(F)F
x1 = 1
Conditions	mass density [kg/m3]
298.15 K	800
303.15 K	796
308.15 K	791.9

CCO + CCCC[n+]1cccc(C)c1.O=S(=O)([N-]S(=O)(=O)C(F)(F)F)C(F)(F)F
x1 = 1
Conditions	mass density [kg/m3]
298.15 K	785.4
303.15 K	781.1
308.15 K	776.8

CCCC[N+]1(C)CCCC1.O=S(=O)([N-]S(=O)(=O)C(F)(F)F)C(F)(F)F + CCCO
mass density [kg/m3]
Conditions	x2 = 0	x2 = 0.0545	x2 = 0.0931	x2 = 0.1903	x2 = 0.2935	x2 = 0.3972	x2 = 0.5916	x2 = 0.7837	x2 = 0.8975	x2 = 0.9472
298.15 K	1394.5	1386	1379.7	1361.9	–	1311.5	1238.5	1114.5	988.7	–
303.15 K	1390.1	–	1375.2	1357.5	1334.8	1307.2	–	1110.1	984.3	905.7
308.15 K	1385.7	1377.2	1370.8	1353.1	1330.4	1302.7	1229.6	1105.5	979.9	901.5

CCCC[n+]1cccc(C)c1.O=S(=O)([N-]S(=O)(=O)C(F)(F)F)C(F)(F)F + CCCO
mass density [kg/m3]
Conditions	298.15 K	303.15 K	308.15 K
x2 = 0	1414.7	1410.1	1405.5
x2 = 0.0431	–	1403.2	1398.7
x2 = 0.0889	1399.9	1395.4	1390.8
x2 = 0.1564	1387.5	–	1378.3
x2 = 0.2913	–	1353.1	1348.5
x2 = 0.3788	1334.1	1329.5	1324.9
x2 = 0.5665	1265.1	1260.5	1255.8
x2 = 0.5901	–	1249.4	1244.7
x2 = 0.6913	1196.8	1192.1	–
x2 = 0.8006	1110.3	1105.7	1101.3
x2 = 0.8947	1000.3	995.9	–
x2 = 0.9467	915.7	911.5	907.2

CCCC[N+]1(C)CCCC1.O=S(=O)([N-]S(=O)(=O)C(F)(F)F)C(F)(F)F + CCO
mass density [kg/m3]
Conditions	298.15 K	303.15 K	308.15 K
x2 = 0	1394.5	1390.1	1385.7
x2 = 0.0586	1387.3	1382.9	1378.5
x2 = 0.1981	1367.1	1362.6	1358.1
x2 = 0.2834	1351.7	1347.2	1342.7
x2 = 0.4449	1313.8	1309.2	1304.6
x2 = 0.5133	1292.7	1288.1	1283.5
x2 = 0.6012	1259.1	–	–
x2 = 0.7078	–	1198.4	1193.7
x2 = 0.7929	1139.1	1134.4	–
x2 = 0.8997	1011.8	1007.2	1002.6
x2 = 0.9492	–	916	–

CCCC[n+]1cccc(C)c1.O=S(=O)([N-]S(=O)(=O)C(F)(F)F)C(F)(F)F + CCO
mass density [kg/m3]
Conditions	298.15 K	303.15 K	308.15 K
x2 = 0	–	1410.1	–
x2 = 0.0533	–	–	1398.7
x2 = 0.0924	1402.4	1397.9	–
x2 = 0.1963	1386.5	1381.9	1377.2
x2 = 0.3011	1366.8	1362.2	1357.5
x2 = 0.3959	1344.9	1340.2	1335.5
x2 = 0.4982	–	1310.2	1305.5
x2 = 0.599	–	–	1266.8
x2 = 0.6829	1233	1228.3	1223.5
x2 = 0.7355	1198.5	1193.7	–
x2 = 0.8008	1144.2	1139.4	1134.7
x2 = 0.8991	1021.8	1017.1	1012.4
x2 = 0.9436	938.9	934.3	929.7
